Out of some 360,000 compounds screened, about 11,000 (3.1%) were called active. This list was built around the results that the source calls inconclusive (neither active nor inactive); the mix of calls is not that of the screen. Calls follow the shape of the dose curve; as a rule, active = well fitted inhibition curve with a large enough effect; inconclusive = small, poorly fitted or top-dose-only effect; inactive = no such curve, though single readings can be large or run the other way. Potencies of inconclusive entries are left out as doubtful fits.
target: Schistosoma mansoni thioredoxin glutathione reductase (TGR) (UniProt Q962Y6); test: qHTS Assay for the Inhibitors of Schistosoma Mansoni Peroxiredoxins; settings: purified TGR, DTNB reduction, TNB absorbance 405 nm; activity change, negative = inhibition: at 114 µM (top of the series) unless noted; also: nearly all actives have a fitted effect of over 60% in size
How it was run: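 Kinetic colorimetric format: TGR-catalysed, NADPH-driven DTNB reduction monitored via TNB absorbance. Enzyme dispensed at 20 nM; compound exposure 15 min at room temperature before reaction start.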
% is scaled to controls: 0 for no effect and ±100 for the full control effect; potency is read from the fitted curve at half-maximal effect; tags tell the direction and shape of the fitted curve.

| Compound | Potency | activity change, negative = inhibition |
| --- | --- | --- |
| COCCCNC(=O)CS(=O)(=O)Cc1nc(-c2cccc(OC)c2)oc1C | inconclusive [inhibitor, full curve] | – |
| COc1ccc(C(=O)CSc2nnc(-c3ccoc3C)n2CC2CCCO2)cc1 (stereo not given) | active: 44.7 µM | – |
| N/C(=N\OC(=O)c1ccccc1Br)c1ccc([N+](=O)[O-])cc1 | inconclusive [inhibitor, partial curve, poor fit] | – |
| O=C1CCC/C(=N/Nc2ccc(Cl)cc2)C1 | active: 12.6 µM | – |
| CCOc1ccc(OCC)c(NC(=O)C2CCCN(S(=O)(=O)c3cnc[nH]3)C2)c1 (stereo not given) | inconclusive [inhibitor, single point] | – |
| CCN(c1ccccc1)S(=O)(=O)c1ccc(C(=O)Nc2cc(C)ccn2)cc1 | – | inactive: -0.918% |
| CCc1ccc(S(=O)(=O)c2nnn3c2nc(NCCC(C)C)c2cc(Cl)ccc23)cc1 | – | inactive: -4.52% |
| COc1cc(-c2onc3ccc(Br)cc23)cc(OC)c1OC | inconclusive [inhibitor, partial curve] | – |
| CCc1nnc(NC(=O)CSc2ncc(-c3ccccc3)n2CC)s1 | inconclusive [inhibitor, single point] | – |
| CCOC(=O)NC1C=CS(=O)(=O)C1 (stereo not given) | inconclusive [inhibitor, partial curve] | – |
| C#CCOCOCC#CCN(CC)CC | inconclusive [inhibitor, partial curve] | – |
| CCCc1ccc(C(=O)NNc2cccc(C)c2)cc1 | – | inactive: 0% |
| COc1cccc(OCc2cc(C3Nc4ccccc4C(=O)N3Cc3ccco3)ccc2OC)c1 (stereo not given) | active: 17.8 µM | – |
| Oc1c(Cl)cc(Cl)cc1/C=N/c1nc(-c2ccc(Cl)cc2)cs1 | inconclusive [inhibitor, full curve] | – |
| COc1ccccc1N1CCN(Cc2cc(COC(C)C)c3cccnc3c2O)CC1 | inconclusive [inhibitor, partial curve] | – |
| Cc1ccnc(NC(c2cc(C)ccc2O)c2ccc3cccnc3c2O)c1 (stereo not given) | active: 0.355 µM | – |
| Cc1ccccc1N1C(=O)CC(=O)NC1=O | inconclusive [inhibitor, full curve, poor fit] | – |
| O=c1cc(N2CCN(c3ccc(F)cc3)CC2)[nH]c(=O)n1-c1cccc(Br)c1 | inconclusive [inhibitor, partial curve] | – |
| COc1ccc(C(=O)NC(CC(C)C)C(=O)O)cc1 (stereo not given) | inconclusive [inhibitor, partial curve] | – |
| COc1ccc(C(=O)Nc2ccc(N3CCCC3)cc2)cc1 | active: 56.2 µM | – |
| O=C(O)c1cc(O)c2c(c1)[C@@H]([C@H]1c3cc(C(=O)O)cc(O)c3C(=O)c3c(O[C@@H]4O[C@H](CO)[C@@H](O)[C@H](O)[C@H]4O)cccc31)c1cccc(OC3O[C@H](CO)[C@@H](O)[C@H](O)[C@H]3O)c1C2=O (stereo not given in full) | inconclusive [inhibitor, partial curve] | – |
| Cc1ccc(N2C(=O)CC(N3CCN(C4CCc5ccccc5C4)CC3)C2=O)cc1 (stereo not given) | inconclusive [inhibitor, single point] | – |
| COC(=O)CN1C(=O)N/C(=C/c2ccc(C)o2)C1=O | active: 28.2 µM | – |
| Nn1c(C2CCC2)nc2ccccc2c1=O | inconclusive [inhibitor, single point] | – |

| Compound | Potency | activity change, negative = inhibition |
| --- | --- | --- |
| FC(F)(F)c1cc(-c2ccco2)nc(NCc2ccccc2)n1 | active: 17.8 µM | – |
| COc1ccc(CN(C)C(=O)Cc2ccc(OC)c(S(=O)(=O)N3CCOCC3)c2)cc1 | inconclusive [inhibitor, full curve] | – |
| CC(C)(C)OC(=O)N1CCC(c2c(C(=O)NCc3ccccn3)cnn2-c2ccccc2Cl)CC1 | – | inactive: 5.92% |
| CC(=O)N1N=C(c2cccs2)CC1c1ccco1 (stereo not given) | inconclusive [inhibitor, partial curve] | – |
| CN1C(=O)/C(=C/c2ccc(O)c([N+](=O)[O-])c2)NC1=S | inconclusive [inhibitor, partial curve] | – |
| COc1cc(/C=C(\C#N)c2nc3c(s2)CCCC3)ccc1O | inconclusive [inhibitor, single point] | – |
| COc1cc(C)ccc1OCCSc1nnc(-c2cccs2)o1 | – | inactive: -5.7% |
| CC(/C=C/c1cccs1)=C\C(=O)O | – | inactive: 3.9% |
| COc1ccc(S(=O)(=O)Nc2cc(SCC(=O)O)c(O)c3ccccc23)cc1 | active: 3.55 µM | – |
| COc1ccc(CN2C(=O)NC(=O)/C(=C\c3ccco3)C2=O)cc1 | inconclusive [inhibitor, full curve, poor fit] | – |
| Cn1c(SCc2ccccc2)nnc1-c1ccc2nonc2c1 | – | inactive: 8.85% |
| COc1ccc(NC(=O)c2ccccc2C)c(OC)c1 | inconclusive [inhibitor, full curve, poor fit] | – |
| Cc1ccc(-c2csc(NC(=O)COC(=O)c3cccc(S(=O)(=O)N4CCOCC4)c3)n2)cc1 | – | inactive: -0.235% |
| CCc1ccccc1N(CC(=O)NCc1ccco1)C(=O)c1snc(C(N)=O)c1N | inconclusive [inhibitor, partial curve] | – |
| Cn1c(-c2ccccc2)c(C(=O)CCl)c2ccccc21 | active: 6.31 µM | – |
| Cc1cc(NC(=O)c2ccc([N+](=O)[O-])o2)ccc1NC(=O)c1ccco1 | inconclusive [inhibitor, partial curve] | – |
| CCOc1ccc(CN2CCNC(=O)C2CC(=O)NCCc2nc(C)c3c(n2)CCC3)cc1 (stereo not given) | inconclusive [inhibitor, partial curve] | – |
| O=C(Nc1ccc(N2CCOCC2)c(Cl)c1)c1c(F)c(F)c(F)c(F)c1F | – | inactive: 2.41% |
| O=C(O)/C=C/c1ccc2noc(-c3ccccc3)c2c1 | inconclusive [inhibitor, partial curve] | – |
| COc1ccc(C(=O)Nc2cc(C(C)=O)c(C)oc2=O)cc1 | inconclusive [inhibitor, partial curve] | – |
| Cc1cccc(CN2CCN(Cc3nc4c(s3)CCCC4)CC2CCO)n1 (stereo not given) | inconclusive [inhibitor, partial curve] | – |
| CCC(=O)Nc1cccc(NC(=S)NC(=O)c2ccccc2Cl)c1 | inconclusive [inhibitor, partial curve] | – |
| Cc1ccc(C2CC(c3cccs3)=NN2C(=O)c2ccco2)o1 (stereo not given) | inconclusive [inhibitor, partial curve] | – |
| O=C(CSc1oc(-c2ccco2)nc1S(=O)(=O)c1ccc(Br)cc1)c1ccc(Cl)cc1 | – | inactive: -12.9% |

| Compound | Potency | activity change, negative = inhibition |
| --- | --- | --- |
| Cc1cc2cc(CNC(=O)CCC(=O)O)ccc2n1C | inconclusive [inhibitor, partial curve] | – |
| Cc1ccc(-n2ncc3c(NCc4ccccc4)ncnc32)cc1C | – | inactive: -1.56% |
| Cc1nnc2n1N=C(c1ccc3c(c1)NC(=O)CO3)CS2 | inconclusive [inhibitor, partial curve] | – |
| CCOc1cccc(N2C(=O)CC(N3CCN(c4nc5ccccc5s4)CC3)C2=O)c1 (stereo not given) | inconclusive [inhibitor, partial curve] | – |
| CCOc1ccc(CC(=O)NCC(=O)NCc2cc(=O)n(C)c(=O)n2C)cc1 | inconclusive [inhibitor, partial curve, poor fit] | – |
| O=C(NC(=S)Nc1ccc(S(=O)(=O)N2CCCCC2)cc1)c1cccs1 | inconclusive [inhibitor, partial curve] | – |
| CC1(OC(=O)C2CCCC2)C(=O)C=C2C=C(c3ccsc3)N(C(CO)CO)C=C2C1=O (stereo not given) | inconclusive [inhibitor, partial curve] | – |
| COc1ccc(OCC(=O)N/N=C/C(C)=C/c2ccco2)c(Br)c1 | active: 39.8 µM | – |
| CCc1cc2c(cc3c(=O)n(CC(=O)NCCCN4CCCCCC4)nc(CC)n32)s1 | inconclusive [inhibitor, partial curve] | – |
| CC1(C)CC(=O)C(N=Nc2cccc(S(=O)(=O)N3CCOCC3)c2)=C(O)C1 | inconclusive [inhibitor, full curve, poor fit] | – |
| O=C(c1ccncc1)N1CCN(S(=O)(=O)c2ccc(F)cc2)CC1 | inconclusive [inhibitor, partial curve, poor fit] | – |
| FC(F)(Cl)c1nnc2ccc(Sc3ccccn3)nn12 | inconclusive [inhibitor, partial curve] | – |
| CCN(CC)c1cccc(OC2=NS(=O)(=O)c3ccccc32)c1 | inconclusive [inhibitor, partial curve] | – |
| O=C(NN=C1CCCC1)C(=O)Nc1cccc(C(F)(F)F)c1 | inconclusive [inhibitor, full curve, poor fit] | – |
| O=C(c1ccco1)N(CCC(c1ccccc1)c1ccco1)Cc1ccccc1 (stereo not given) | active: 50.1 µM | – |
| COc1ccc(C(=O)c2ccc(N3CCN(C(=O)c4ccc(F)cc4)CC3)c(F)c2)cc1Br | inconclusive [inhibitor, partial curve, poor fit] | – |
| CCOc1cc2[nH]c(=O)n(CCCN3CCN(c4ccc(OC)cc4)CC3)c(=O)c2cc1OCC | – | inactive: 0.0762% |
| CCOC(=O)c1c(-c2ccccc2)nc2ccccn12 | – | inactive: -27.5% |
| Cc1ccc(NC2CC(C)NC(=S)N2)cc1 (stereo not given) | inconclusive [inhibitor, partial curve] | – |
| Nc1nc(N2CCCCC2)nc2ccccc12 | – | inactive: -33.3% |
| CC(=O)c1ccc(Nc2ccc(-c3ccccc3F)nn2)cc1 | inconclusive [inhibitor, partial curve] | – |
| CCCC(=O)NC(=S)Nc1ccc(NC(=O)c2cccs2)cc1 | inconclusive [inhibitor, full curve, poor fit] | – |
